In paper PMC6172828:
These are yes or no findings as the source states them, for the method shown. Binding seen in cells or lysates may run through a third protein. Sequences can lack the tags named with a protein.

Columns and labels:
[1] = target: T1, 3xFLAG-ATF7IP K16R mutant (stably expressed in Atf7ip KO mESCs) (mouse) (UniProt Q7TT18); assay: co-IP; Atf7ip KO mESCs rescued with 3xFLAG-ATF7IP WT, K16R or Δ(1–16); anti-FLAG M2 beads; endogenous partners detected by western blot
T1 sequence: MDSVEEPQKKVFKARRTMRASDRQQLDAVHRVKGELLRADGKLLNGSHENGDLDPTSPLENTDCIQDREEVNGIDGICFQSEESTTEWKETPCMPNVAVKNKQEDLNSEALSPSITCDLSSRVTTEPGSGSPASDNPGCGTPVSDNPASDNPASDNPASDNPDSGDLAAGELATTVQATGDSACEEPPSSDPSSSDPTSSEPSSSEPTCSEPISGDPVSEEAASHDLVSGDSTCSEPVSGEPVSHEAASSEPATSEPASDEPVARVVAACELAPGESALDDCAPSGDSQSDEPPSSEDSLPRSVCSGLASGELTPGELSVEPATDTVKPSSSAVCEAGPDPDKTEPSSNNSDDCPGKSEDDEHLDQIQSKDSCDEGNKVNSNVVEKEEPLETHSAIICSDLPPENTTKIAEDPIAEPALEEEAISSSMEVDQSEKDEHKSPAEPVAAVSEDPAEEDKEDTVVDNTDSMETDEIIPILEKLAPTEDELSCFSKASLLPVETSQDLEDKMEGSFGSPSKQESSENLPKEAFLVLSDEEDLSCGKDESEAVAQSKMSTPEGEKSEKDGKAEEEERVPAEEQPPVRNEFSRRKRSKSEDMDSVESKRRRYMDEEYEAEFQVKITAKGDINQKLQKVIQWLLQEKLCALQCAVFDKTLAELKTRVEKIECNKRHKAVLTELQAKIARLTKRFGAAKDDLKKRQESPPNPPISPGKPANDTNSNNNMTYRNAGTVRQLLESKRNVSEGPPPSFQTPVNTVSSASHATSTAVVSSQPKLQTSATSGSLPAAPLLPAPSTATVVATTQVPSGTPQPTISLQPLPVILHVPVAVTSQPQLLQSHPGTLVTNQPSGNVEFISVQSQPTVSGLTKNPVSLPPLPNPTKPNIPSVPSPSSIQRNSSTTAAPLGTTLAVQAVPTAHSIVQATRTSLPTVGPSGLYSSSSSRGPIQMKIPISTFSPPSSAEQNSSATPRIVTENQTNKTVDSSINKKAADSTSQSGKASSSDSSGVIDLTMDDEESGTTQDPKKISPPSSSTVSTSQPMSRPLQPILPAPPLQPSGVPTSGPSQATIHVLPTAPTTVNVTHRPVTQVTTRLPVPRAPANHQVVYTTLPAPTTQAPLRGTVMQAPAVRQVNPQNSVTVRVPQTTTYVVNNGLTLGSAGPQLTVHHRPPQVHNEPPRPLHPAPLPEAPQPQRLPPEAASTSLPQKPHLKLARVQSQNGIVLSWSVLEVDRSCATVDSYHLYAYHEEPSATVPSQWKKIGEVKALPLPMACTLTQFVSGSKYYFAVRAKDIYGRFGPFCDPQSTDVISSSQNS

[2] = target: T2, 3xFLAG-ATF7IP Δ(1–16) mutant (stably expressed in Atf7ip KO mESCs) (mouse) (UniProt Q7TT18); assay: as above
T2 sequence: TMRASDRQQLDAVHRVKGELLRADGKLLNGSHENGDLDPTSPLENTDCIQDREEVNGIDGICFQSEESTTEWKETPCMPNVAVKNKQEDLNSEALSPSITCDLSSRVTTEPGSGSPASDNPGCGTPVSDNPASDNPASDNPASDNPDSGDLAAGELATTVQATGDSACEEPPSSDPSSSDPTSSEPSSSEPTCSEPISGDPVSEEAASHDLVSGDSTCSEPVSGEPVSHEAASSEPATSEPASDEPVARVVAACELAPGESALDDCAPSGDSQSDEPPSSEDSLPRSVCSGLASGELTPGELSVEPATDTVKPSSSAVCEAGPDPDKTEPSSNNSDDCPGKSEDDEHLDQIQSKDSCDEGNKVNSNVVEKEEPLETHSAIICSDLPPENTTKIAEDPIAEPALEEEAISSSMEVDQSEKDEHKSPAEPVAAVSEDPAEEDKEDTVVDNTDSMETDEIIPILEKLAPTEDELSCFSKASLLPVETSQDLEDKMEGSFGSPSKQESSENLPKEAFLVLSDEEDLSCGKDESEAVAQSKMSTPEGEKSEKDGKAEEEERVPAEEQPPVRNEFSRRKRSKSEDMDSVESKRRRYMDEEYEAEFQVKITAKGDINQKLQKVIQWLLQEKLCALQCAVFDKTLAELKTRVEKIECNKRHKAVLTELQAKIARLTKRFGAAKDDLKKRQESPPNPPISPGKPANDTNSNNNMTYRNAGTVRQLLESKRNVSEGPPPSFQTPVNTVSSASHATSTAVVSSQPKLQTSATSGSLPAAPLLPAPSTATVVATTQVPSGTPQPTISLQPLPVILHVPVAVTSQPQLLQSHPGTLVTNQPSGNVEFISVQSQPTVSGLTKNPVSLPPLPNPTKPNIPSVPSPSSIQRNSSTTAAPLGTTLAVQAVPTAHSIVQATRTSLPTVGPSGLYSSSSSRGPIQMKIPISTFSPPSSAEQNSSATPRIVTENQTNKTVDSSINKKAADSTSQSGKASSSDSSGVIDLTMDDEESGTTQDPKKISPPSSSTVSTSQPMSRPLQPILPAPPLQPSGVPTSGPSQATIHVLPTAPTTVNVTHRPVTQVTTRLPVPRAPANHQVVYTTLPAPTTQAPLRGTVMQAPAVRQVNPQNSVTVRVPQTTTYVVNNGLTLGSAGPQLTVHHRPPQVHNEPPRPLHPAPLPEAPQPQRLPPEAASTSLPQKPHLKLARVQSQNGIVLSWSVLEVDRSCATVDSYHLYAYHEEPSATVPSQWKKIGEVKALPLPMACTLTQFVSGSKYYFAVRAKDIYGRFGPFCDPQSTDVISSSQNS

binding [1]: no binding
binding [2]: no binding
B1: M-phase phosphoprotein 8 (MPP8), endogenous in mESCs (protein, UniProt Q3TYA6 1-858)
chain: MAAAAEEGMSAAALVMSVPDSIGRSPESEGVGAGDEEKDAATKGTVAVGDSEEDGEDVFEVERILDMKCEGGKNLYKVRWKGYTSEDDTWEPEVHLEDCKEVLLEFRKKLAENKAKAVRKDIQRLSLNNDIFEADSDSDQQSDTKEDISPRKKKKKIKCKEETSPEDLRKKRTKMGKLKDKFKTELESTSEIIGFDVKTKKRIWEVKEELKDSKKPKKDEIKETKELKKANKRAEVRDLKIKIREDVKENRKTKKERYIESPLESESPNDSLILEDDSEDFISDNREENQNVRSVRDKTAQETVQEGIFEKHLDDLISIEEDAGTRVRRKKTKPRKFEEPKEIKKLESTNAFLERRAIPKKQRNQDKGISNLELNKLPSPVFAQTLKSSRLSGEEKSLKSPDLAEEEKEKKNEPKGKYQKRYDLDKEEKARKEPKVLKSFKEIRNAFDLFKKTTEEKNDVLENNSKREEISLDSKIMNDNKTKDKCSLKEKRNTRDETDTWAYIAAEGDQEVSDSVCQTDETSDGRQPVLSLGMDLQLEWMKLEDFQKHLDGEDEPFITTNRIPNNLLRDAVKNGDYIAVKVALNSNEEYNLDQEDSTGMTLVMLAAAGGQDDLLRLLITKGAKVNGRQKNGTTALIHAAEKNFLTTVAILLEAGAFVNVQQSNGETALMKACKRGNSDIVRLVIECGADCNILSKHQNSALYFAKQCNNVLVYELLKSHLETLSRVAEETIRDYFESRLALLEPVFPIACHRLCEGPDFSTDFNYMPPQNMPEGSGVLLFIFHANFLGKDVIARLCGPCSVQAVVLNDKFQLPVFLDSHFVYSFSPVAGPNKLFIRLTEAPFAKVKLLIGAYRVQLQ
